From PMC6130882 (2018)

Target: cyclic V2 peptide derived from C06980v0c22 (subtype C) (HIV-1 C06980v0c22 (subtype C), cyclic; amino-terminal biotin)
Experiment: SPR; 1 mM MnCl2

B1: recombinant soluble α4β7 heterodimer (complex)
chain 1: not shown
chain 2: ELDAKIPSTGDATEWRNPHLSMLGSCQPAPSCQKCILSHPSCAWCKQLNFTASGEAEARRCARREELLARGCPLEELEEPRGQQEVLQDQPLSQGARGEGATQLAPQRVRVTLRPGEPQQLQVRFLRAEGYPVDLYYLMDLSYSMKDDLERVRQLGHALLVRLQEVTHSVRIGFGSFVDKTVLPFVSTVPSKLRHPCPTRLERCQSPFSFHHVLSLTGDAQAFEREVGRQSVSGNLDSPEGGFDAILQAALCQEQIGWRNVSRLLVFTSDDTFHTAGDGKLGGIFMPSDGHCHLDSNGLYSRSTEFDYPSVGQVAQALSAANIQPIFAVTSAALPVYQELSKLIPKSAVGELSEDSSNVVQLIMDAYNSLSSTVTLEHSSLPPGVHISYESQCEGPEKREGKAEDRGQCNHVRINQTVTFWVSLQATHCLPEPHLLRLRALGFSEELIVELHTLCDCNCSDTQPQAPHCSDGQGHLQCGVCSCAPGRLGRLCECSVAELSSPDLESGCRAPNGTGPLCSGKGHCQCGRCSCSGQSSGHLCECDDASCERHEGILCGGFGRCQCGVCHCHANRTGRACECSGDMDSCISPEGGLCSGHGRCKCNRCQCLDGYYGALCDQCPGCKTPCERHRDCAECGAFRTGPLATNCSTACAHTNVTLALAPILDDGWCKERTLDNQLFFFLVEDDARGTVVLRVRPQEKGADH
modifications: disulfide bond joining the acid-base clasp | disulfide bond joining the acid-base clasp
  Kd: 1.58 nM
